The record followed here is patent US20200231654A1 (Daiichi Sankyo, published 2020).

In one assay the target is T1, active hMMP-9(cat)_His6 (human, UniProt P14780 107-449).
T1 construct: also called active human MMP-9 enzyme active domain; active human MMP-9; not shown: His tag (His6 by the construct's name)
The experiment in a line: size exclusion chromatography of the mixture, peak shift. The protocol:
(§1) After the reaction, 10 μl of the reaction solution was analyzed by size exclusion chromatography. The chromatographic conditions were as follows.

A further assay deals with T2, hMMP-9(cat)_E402Q_His6 (human, UniProt P14780 107-449).
T2 construct: also called human MMP-9 enzyme active domain E402Q mutant; human MMP-9 E402Q mutant; not shown: His tag (His6 by the construct's name)
Described as above. Here is the method: as §1

hMMP-9(cat)_E402Q_His6, sequence (P14780 107-449 E402Q): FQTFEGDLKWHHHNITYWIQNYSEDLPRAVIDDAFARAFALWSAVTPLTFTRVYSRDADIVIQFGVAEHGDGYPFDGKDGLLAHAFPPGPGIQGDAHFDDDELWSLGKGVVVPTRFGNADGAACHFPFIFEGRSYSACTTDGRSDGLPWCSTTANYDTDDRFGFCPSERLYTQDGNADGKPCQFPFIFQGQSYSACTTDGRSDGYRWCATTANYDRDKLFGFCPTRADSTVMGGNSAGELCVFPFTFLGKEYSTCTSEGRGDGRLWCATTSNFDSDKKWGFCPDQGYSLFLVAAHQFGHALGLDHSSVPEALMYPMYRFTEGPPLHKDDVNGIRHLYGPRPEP
active hMMP-9(cat)_His6, sequence (P14780 107-449): as the sequence (P14780 107-449 E402Q) above, with Q296E counted along it

B1: hTIMP-1 (other, human, UniProt P01033 24-207, looked up)
chain: CTCVPPHPQTAFCNSDLVIRAKFVGTPEVNQTTLYQRYEIKMTKMYKGFQALGDAADIRFVYTPAMESVCGYFHRSHNRSEEFLIAGKLQDGLLHITTCSFVAPWNSLSLAQRRGFTKTYTVGCEECTVFPCLSIPCKLQSGTHCLWTDQLLQGSEKGFQSRHLACLPREPGLCTWQSLRSQIA
On to B1, for which the binding result in the assay with active hMMP-9(cat)_His6 and with hMMP-9(cat)_E402Q_His6 was “binds” each time.
